# Some of the results follow.
# T1: UNK ZnF1-3 (human, UniProt Q9C0B0 31-174)
# T1 sequence: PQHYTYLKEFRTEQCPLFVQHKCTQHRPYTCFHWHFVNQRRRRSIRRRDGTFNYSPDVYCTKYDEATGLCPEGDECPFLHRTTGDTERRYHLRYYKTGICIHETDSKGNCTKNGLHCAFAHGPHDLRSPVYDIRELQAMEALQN
# B1: chr19:45035288:45035289:+_ENSMUSG00000036097_ENSMUST00000096053|mus_mus|motif|central (ssRNA)
# RNA: GGGAGUUCUACAGUCCGACGAUCAGUCUCCAGAGGAAACAAAGAUCCAAAACCAACGCCCAUGUUGAAGAAUACAGCUGCGGUAUCAGACAAAGAUGGGAUCCAGGGCCAAACUGGAGAGUCACUGAAAGUAUCAUUUCUAAUCAACAGAGGAUUGAGCAUCA
# B2: chr1:84754351:84754352:-_ENSMUSG00000026219_ENSMUST00000027421|mus_mus|FALSE|FALSE (ssRNA)
# RNA: GGGAGUUCUACAGUCCGACGAUCAGCAUGAUUUUUCAGAACAUCCUUCAGAAGUUCAGCAUCAGCAAAAUAAAUUAUCCUAAGAAUUGCUCUAAGGCACUUGUGUCUGACCGCAGGGCCUGCUGAGGAGCUGUACACUUCAUACAACAGAGGAUUGAGCAUCA
# B3: chr1:59924863:59924864:+_ENSMUSG00000067336_ENSMUST00000087435|mus_hu|motif|central (ssRNA)
# RNA: GGGAGUUCUACAGUCCGACGAUCGCUGCCAAAUUUUAGCCGGGGCUCUUUUGUUGAAUUUUUGGUGUUCAAAGGCAAACGGGUAGGUCUCUUGGGAAGGUUCUGCUGCUUGGGGAGAGGAUAGAUCUGAGUAGGCAGAACAUCCAACAGAGGAUUGAGCAUCA
# B4: chr5:137527996:137527997:-_ENSG00000094880_ENST00000394886|hu_mus|FALSE|FALSE (ssRNA)
# RNA: GGGAGUUCUACAGUCCGACGAUCUUCUCCUAAGGCAACCAGCAUGCGAGAAUCAUUGGGACGAAGCUGGUGGGCCCGUCUAUAAUAAUAAAGGCAAUAAAAUGGCAUUUUAAGGAUUUCGUAAGUCUGCCCAAGGCCAUACCACAACAGAGGAUUGAGCAUCA
# B5: chr4:17845017:17845018:+_ENSG00000109805_ENST00000514176|hu_mus|hu_hu_hu_mus_False|38_78 (ssRNA)
# RNA: GGGAGUUCUACAGUCCGACGAUCGCUCUCUUAACUUGUAUCUUCAUUAAGGAACUCGCAAGGUUAAAGUUUACUUUUCUGUAGCGCAGCUGUUUUGCUCGUCUUGGGUAAUCUCAUCUUCAUUUCUGAUGGUGGUUCAUGAUCCAACAGAGGAUUGAGCAUCA
# B6: chr16:94651144:94651145:+_ENSMUSG00000040785_ENSMUST00000117648|mus_hu|mus_mus_mus_hu_True|28_28 (ssRNA)
# RNA: GGGAGUUCUACAGUCCGACGAUCAUUUUCUUGAAUCAAGUGGCGAAUAACAUAGUCCACUGCUUCAUUUAGAAAAUUUCUGCUAGAAAAACAGGUUGUAUAGUCUUCCGUGCUCAGAACUUUCCAAGAAAGCAAUUCUUUGAGCAACAGAGGAUUGAGCAUCA
# B7: 235292066_235292186_125_5pUTR_ENSG00000173726_ENST00000366607|human|control|control (ssRNA)
# RNA: GGGAGUUCUACAGUCCGACGAUCGGACCGCGAAGGAGCGGUGGGCCACGAACCCUCAGAGCGGUCGGCGCAGCUCACACCCGACGGCCGCGGGCCAGGAACACAGAAAGGCCGAGCACACGCCACUUCCGGUCCCAGUCAACUCAACAGAGGAUUGAGCAUCA
# B8: chr12:69233606:69233607:+_ENSG00000135679_ENST00000462284|hu_mus|motif|central (ssRNA)
# RNA: GGGAGUUCUACAGUCCGACGAUCCUAAUUUGGGGGUCAUAUAGUUAGAAAUAUAAAAUUCUAUUUUUGUGAGCAGGUCAGCGGGUUGAAGUAAGUUAGCACAAUCAUUUGGAUUGGCUGUCUGCACACUGGGCAGGGCUUGUUCAACAGAGGAUUGAGCAUCA
# B9: chr2:179803060:179803061:+_ENSMUSG00000039086_ENSMUST00000041126|mus_hu|FALSE|FALSE (ssRNA)
# RNA: GGGAGUUCUACAGUCCGACGAUCGUCUUAGAAAUGUAAAAAUUACUCAAGUUUCUCUAUAUAAAACCUUUACUUUUCAUUAGAAAGAACACAGUAAUGUAACUGGAUGUGACUUUCAGACAUCCCUAAAAGAAAAGAAAUGCUCAACAGAGGAUUGAGCAUCA
# B10: chr7:7612872:7612873:+_ENSG00000164654_ENST00000405785|hu_mus|FALSE|FALSE (ssRNA)
# RNA: GGGAGUUCUACAGUCCGACGAUCCUUUGUCAAGGGCUUUGGUUGUUCAGUCAAAGUCAAAACUGGCUUCUCAAAUUUUCUAAGAUCCCAUAUUGCAACCUGACCUUCAUAGAAGGAAGCAACACGAUCGUGGAAGUAAGGGUCCAACAGAGGAUUGAGCAUCA
# B11: chr7:54823571:54823572:-_ENSG00000132432_ENST00000352861|hu_mus|hu_hu_hu_mus_False|48_98 (ssRNA)
# RNA: GGGAGUUCUACAGUCCGACGAUCUCCCAUGAUAGCAAAUCCUAUUGCUGUAGCCAUGGCAAUCUUCUGGAAUUCUUUUCUGUCGGGUUUAGUGCAUCUUUUAACCAGCCGAAUUGAGUCCUUUACAAACUGCCGGCUGGGCUCCAACAGAGGAUUGAGCAUCA
# B12: 30602309_30602429_1961_3pUTR_ENSG00000107951_ENST00000263063|human|control|control (ssRNA)
# RNA: GGGAGUUCUACAGUCCGACGAUCCGCCACACUCCACAGCUGAUGUUUUAAUAAAGUGCCACUGAGUAUCAGACUGAUCAAACUGAAAACAUCCCAGAACUUCAGACCAGGUUAAGGGGGCCAAUGAGAAGAUCAUGAAAAGUGCAACAGAGGAUUGAGCAUCA
# B13: chr17:48772226:48772227:-_ENSG00000154945_ENST00000285243|hu_hu|FALSE|FALSE (ssRNA)
# RNA: GGGAGUUCUACAGUCCGACGAUCUAAGAUCAAACAAUUUGUUUACAAAAGCAACAGAUUUCAGAAUUGUGUAAAAAUCCUAAUAAUUUCAAAAUAACCUUUAUUUUUGAUACAAAAAUAAAGAUGCUAACUCCUUUAGCUCAGCAACAGAGGAUUGAGCAUCA
# B14: 44118978_44121375_326_CDS_ENSG00000066135_ENST00000372396|human|control|control (ssRNA)
# RNA: GGGAGUUCUACAGUCCGACGAUCCUGAGUAAAGAGGCCAGACUGCCCCGUCACCAGCUGUUGAAUGGGGGCAGGAAUGACCAAAUCAUCAAUGUCAUCAUAGGAUGCUCGUGGCUUCCACUCUUUUGGAGGAACAACCUUGGCCAACAGAGGAUUGAGCAUCA
# Biological target: T1, UNK ZnF1-3
# Test: nsRBNS (natural sequence RNA bind-n-seq); RBNS binding buffer (assumed for nsRBNS): 25 mM Tris pH 7.5, 150 mM KCl, 3 mM MgCl2, 0.01% Triton X-100, 500 ug/ml BSA, 20 U/ml SUPERase-In, 4 C; UNK is unkempt and MSI1 is Musashi-1; names of the RNAs are library labels; protein concentration not given here; high values mean tight binding
row,Binder,binding signal [enrichment R]
1,B1,1.94
2,B2,2.18
3,B3,1.52
4,B4,1.06
5,B5,0.38
6,B6,0.492
7,B7,0.531
8,B8,1.58
9,B9,0.678
10,B10,0.757
11,B11,0.582
12,B12,2.32
13,B13,1.23
14,B14,1.06
